About 18,000 (5.8%) of roughly 310,000 compounds were called active. Inconclusive results, whose numbers are uncertain, are shown with a selection of clear calls. The call rests on the fitted dose curve; in most records, active means well fitted inhibition curve with a large enough effect; inconclusive means small, poorly fitted or top-dose-only effect, or another doubt; inactive means no such curve, though single readings can be large or run the other way. No potency is given beside an inconclusive call; the fits are too rough. A structure can be active in one record and inactive in another.
Test: Primary qHTS for delayed death inhibitors of the malarial parasite plastid, 48 hour incubation
Conditions: P. falciparum luciferase growth in erythrocytes; series mostly up to 28.7 µM; activity change, negative = inhibition: at the top concentration
Summary of the method: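 Firefly luciferase activity from engineered P. falciparum reports growth; inhibitors lower the luminescent signal. Cultures contained 2% hematocrit erythrocytes at 0.1% final parasitemia.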
On the % scale 0 is the no-effect control and ±100 the full control effect; potency means the concentration at half of the fitted maximal effect; tags describe the fitted curve by direction and shape.

Structure (SMILES)	Potency	activity change, negative = inhibition
COc1ccc(CCN(C)C(=O)c2cc(-c3ccccc3)nc3ccccc23)cc1OC	active: 13.1 µM	
Cc1ccc(C)c(OCC(=O)Nc2ccc(S(=O)(=O)Nc3ncccn3)cc2)c1	inconclusive [inhibitor, single point]	
CC(NC(=O)C(=O)NCCC1=CCCCC1)c1ccccc1 (centres undefined)		inactive: 16.1%
COc1cccc(CNc2nc3ccccc3n2C(C)C)c1O	inconclusive [inhibitor, full curve, poor fit]	
Oc1ccccc1Oc1c(F)c(F)nc(N2CCCC2)c1F	inconclusive [inhibitor, single point]	
Cc1cc(NC(=O)CCc2ccc(-c3ccccc3)o2)no1	inconclusive [inhibitor, partial curve, poor fit]	
Cn1cc(NC(=O)c2cc(NC(=O)c3cc(NC=O)cn3C)cn2C)cc1C(=O)NCCC(=N)N	active: 3.38 µM	
CCOc1ccc(/C=N/n2cc(-c3ccccc3)[nH]c2=S)cc1	inconclusive [inhibitor, partial curve, poor fit]	
COc1ccc(OC)c(-c2csc(NC(=O)Cc3ccccc3F)n2)c1	inconclusive [inhibitor, single point]	
CCCCNC(=S)NNC(=O)c1cc(C2CC2)nc2ccccc12	inconclusive [inhibitor, single point]	
CCOc1ccc(CN2CCN(CC(O)Cn3c4ccccc4c4ccccc43)CC2)cc1 (centres undefined)	active: 2.08 µM	
COc1ccc2cc(CN(C(=O)Nc3ccccc3)C3CCCC3)c(=O)[nH]c2c1	inconclusive [inhibitor, partial curve]	
Cc1cc(C(C)(C)C)oc1C(=O)N(CC(=O)NC1CCCC1)Cc1ccccc1	inconclusive [inhibitor, single point]	
CCO[C@@H]1OC(C(=O)N2CCN(Cc3ccc4c(c3)OCO4)CC2)=C[C@H](C)[C@H]1CCCO	inconclusive [inhibitor, single point]	
CCCCn1c(N)c(N(CC(C)C)C(=O)c2cnc(C)cn2)c(=O)[nH]c1=O		inactive: 6.65%
CC(Oc1ccc(S(=O)(=O)N2CCCC2)cc1[N+](=O)[O-])C(=O)NC1(C#N)CCCCC1 (centres undefined)	inconclusive [inhibitor, single point]	
COC(=O)CCN1CCN(S(=O)(=O)c2ccc3c(c2)OCCO3)CC1		inactive: -23.9%
CCCCn1c(N)c(N(CC(C)C)C(=O)c2cc(-c3ccco3)nc3ccccc23)c(=O)[nH]c1=O	inconclusive [inhibitor, single point]	
Cc1ccc(-c2cc(C(=O)N3CCCC(C(F)(F)F)C3)c3ccccc3n2)o1 (centres undefined)	inconclusive [inhibitor, single point]	
Cc1cc(=O)oc2cc(NC(=O)CN3C(=O)NC(C)(c4ccccc4)C3=O)ccc12 (centres undefined)		inactive: -14.4%
CCOc1ccccc1CN1CCC(n2nccc2NC(=O)C2CCCC2)CC1	active: 11.7 µM	
CSc1ccc(CN(C)Cc2cc(=O)oc3c(C)c(C)ccc23)cc1	inconclusive [inhibitor, partial curve, poor fit]	

Structure (SMILES)	Potency	activity change, negative = inhibition
O=S(=O)(c1ccc(Cl)c(Cl)c1)c1snnc1-c1ccccc1	inconclusive [inhibitor, partial curve, poor fit]	
CCCCOc1ccc(Cc2c(COCC)[nH]c(=S)[nH]c2=O)cc1	inconclusive [inhibitor, single point]	
Cc1ccc2occ(C3N[C@H](C(=O)O)CS3)c(=O)c2c1 (some centres undefined)	inconclusive [inhibitor, full curve, poor fit]	
CC[C@H](NC(C)C)[C@H](O)c1ccc(O)c(O)c1	inconclusive [inhibitor, single point]	
COc1ccc(C)cc1NC(=O)CN1C(=O)COc2ccc(S(=O)(=O)N3CCCCCC3)cc21	inconclusive [inhibitor, partial curve]	
Cc1cc(N(C)C)ccc1N=Nc1ccc2ncccc2c1		inactive: -20.7%
CCOC(=O)c1c(C)[nH]c(C)c1C(=O)COC(=O)c1sccc1C	inconclusive [inhibitor, single point]	
O=C(CCCn1c(=O)c2cccn2c2cccnc21)NCc1cccc(Br)c1		inactive: -17.1%
Cc1ccc(S(=O)(=O)N2CCN(CN3C(=O)CC4(CCCC4)C3=O)CC2)cc1	inconclusive [inhibitor, partial curve]	
Cc1ccc(-c2nnn(Cc3nc4ccccc4s3)n2)cc1		inactive: 11.3%
COc1ccc(Nc2nc(Cl)nc(Nc3ccc(OC)cc3)n2)cc1		inactive: -2.45%
Cc1onc(-c2ccccc2Cl)c1C(=O)NCCCN1CCOCC1	inconclusive [inhibitor, partial curve, poor fit]	
NC(=S)N/N=C/c1coc2cc(Br)ccc2c1=O		inactive: 55.2%
CCC(OC(=O)CNS(=O)(=O)c1ccccc1)C(=O)c1ccccc1 (centres undefined)	inconclusive [inhibitor, partial curve, poor fit]	
CC(=O)N/N=C(\C)c1cccc(C(F)(F)F)c1	inconclusive [inhibitor, partial curve, poor fit]	
Cc1cc(C)c2nc(Nc3nc(-c4ccccc4)cc(=O)[nH]3)nc(C)c2c1	active: 1.65 µM	
COc1cccc(C(=O)Nc2nc(-c3ccc(S(=O)(=O)N4CCOCC4)cc3)cs2)c1	active: 11.7 µM	
O=C(NNC(=O)c1cc(-c2ccncc2)nc2ccccc12)c1ccccc1O	inconclusive [inhibitor, single point]	
CNS(=O)(=O)c1ccc(C(=O)NCC(=O)NC(C)c2cccs2)cc1 (centres undefined)		inactive: -13.3%
CC(C)CC(=O)Nc1ccc2ccccc2c1	inactive	
COc1ccc(NC(=O)CC2C(=O)NCCN2C(=O)Nc2ccc(C(F)(F)F)cc2)cc1 (centres undefined)	inconclusive [inhibitor, single point]	
CC(=O)c1ccc(Sc2ccccn2)c([N+](=O)[O-])c1		inactive: 14.2%
